Experimental data: PubChem BioAssay AID493208 (National Center for Advancing Translational Sciences (NCATS), 2011)
Out of some 44,000 compounds screened, about 340 (0.77%) were called active. About 5% were inconclusive and are not listed. Calls follow the shape of the dose curve; as a rule, active = well fitted inhibition curve with a large enough effect; inconclusive = small, poorly fitted or top-dose-only effect; inactive = flat fitted curve, though single readings scatter. The list shows a part of the results.

Experiment: Acumen qHTS Assay for Inhibitors of the mTORC1 Signaling Pathway in MEF (Tsc2-/-, p53-/-) Cells: Sytravon; also: nearly all actives have a fitted effect of over 50% in size;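 as to activity change, negative = inhibition: plate controls were DMSO for no effect and rapamycin for full effect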
Details: phospho-rpS6 immunofluorescence/PI, 24 h; series mostly up to 38.3 µM; activity change, negative = inhibition: at the top concentration
Method in brief: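 Cell-based qHTS: Tsc2-/- p53-/- MEF, 24 h cpd, 37 °C; fix/perm, anti-phospho-S6 Alexa-488 + PI; Acumen 488 nm scan; pS6/PI ratio, % positive cells; rapamycin 7.5 nM = inhibition ref; PI count = viability.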
Potency is read from the fitted curve at half-maximal effect.

Row | Compound | activity change, negative = inhibition | Potency
1 | O=C(Nc1cc(Cl)ccc1Cl)c1ccc2c(c1)N(Cc1cccc(Cl)c1)C(=O)c1ccccc1S2=O (stereo not given) | inactive: 0.679% | –
2 | Cc1c(Cl)cccc1NC(=O)c1cc(-c2ccc3c(c2)OCO3)on1 | inactive: 7.21% | –
3 | COc1c(Cl)cc(C(=O)Nc2cc(-c3nc4ccccc4[nH]3)ccc2C)cc1Cl | inactive: -5.69% | –
4 | Cc1ccc2oc(C(=O)Nc3c(C(=O)Nc4cccc(Cl)c4)oc4ccccc34)cc(=O)c2c1 | inactive: 3.55% | –
5 | Cc1ccccc1Cn1ccn(-c2ccc(F)c(F)c2)c(=O)c1=O | inactive: 3.76% | –
6 | CCOC(=O)CSc1nc2ccccc2c(=O)n1-c1ccc(C(=O)NCCOC)cc1 | inactive: 1.64% | –
7 | O=C(Nc1ccccc1C(F)(F)F)N1CCOc2ccc(Cl)cc21 | inactive: 5.66% | –
8 | Cc1ccc(N2C(=O)CS(=O)(=O)C23C(=O)Nc2ccccc23)cc1C (stereo not given) | inactive: 0.387% | –
9 | CCOC(=O)N1CCC(NC(=O)c2ccc3c(c2)N(Cc2ccccc2C)C(=O)c2ccccc2S3=O)CC1 (stereo not given) | inactive: 0.28% | –
10 | CCOc1ccccc1-c1noc(CSc2nnc(-c3ccccc3)n2-c2ccc(OC)cc2)n1 | inactive: 4.75% | –
11 | COc1ccc(N2CCN(CCCNC(=O)c3c(C)nn(-c4ccc(F)cc4)c3-n3cccc3)CC2)cc1 | inactive: -11.9% | –
12 | COc1ccc(S(=O)(=O)N(CC(=O)NC(C)c2ccccc2)c2ccc(C)cc2)cc1OC (stereo not given) | inactive: 12.5% | –
13 | CCc1ccc(NC(=O)Cn2nnc(-c3ccccc3N)n2)cc1 | inactive: -13% | –
14 | COc1ccccc1N1CCN(C(=O)c2cc3c(=O)n(Cc4cccs4)ccc3nc2C)CC1 | inactive: -6.8% | –
15 | CCOC(=O)N1CCc2c(sc3c2c(=O)n(-c2ccc(CC)cc2)c(=O)n3Cc2ccc(F)cc2Cl)C1 | inactive: -0.789% | –
16 | CCOc1ccc2nc(N3CCCC(C(=O)NCCc4ccc(Cl)cc4)C3)sc2c1 (stereo not given) | inactive: 0.0845% | –
17 | Cc1ccc(-n2ncc3c(NCCCn4ccnc4)ncnc32)cc1C | inactive: 12.3% | –
18 | CCOC(=O)c1c(NC(=O)Cc2coc3ccc(CC)cc23)sc2c1CCC2 | inactive: 0.991% | –
19 | Cc1cccc(N2CCN(c3ccc4cc(S(=O)(=O)N5CCC(C)CC5)ccc4n3)CC2)c1C | inactive: -5.02% | –
20 | CC(C)C(=O)Nc1nnc(S(=O)(=O)N2CCc3ccccc32)s1 | inactive: 10.3% | –
21 | COc1ccccc1NC(=O)N1CCN(c2ccc3nnc(-c4ccc(F)cc4)n3n2)CC1 | inactive: -4.23% | –
22 | CCOc1ccc(NC(=O)Cn2nc(Cc3cccnc3)c3ccccc3c2=O)cc1 | inactive: 1.67% | –
23 | CCOC(=O)c1c(C)oc2ncnc(Nc3cccc(C(F)(F)F)c3)c12 | inactive: 0.267% | –
24 | Cc1ccc(OCC(=O)Nc2ccc(OCc3cc(=O)n4c(C)csc4n3)cc2)cc1C | inactive: -25% | –

Row | Compound | activity change, negative = inhibition | Potency
25 | CCOc1ccccc1Nc1sc(C(=O)c2ccccc2)c(N)c1C(=O)Nc1ccc(F)cc1 | inactive: -0.0438% | –
26 | Cc1ccc(Cn2ccnc2SCC(=O)NCc2ccccc2)cc1 | inactive: 2.56% | –
27 | Cc1nn(CC(=O)NC2CC2)c(=O)c2cc3cc(F)ccc3n12 | inactive: -6.12% | –
28 | Cc1ccc(NC(=O)c2ccc3c(c2)NC(=O)c2ccccc2S3)c(Cl)c1 | inactive: -18.5% | –
29 | CSc1ccc(CCNC(=O)Cn2nc(C)n3c(cc4sccc43)c2=O)cc1 | inactive: -1.09% | –
30 | Cc1nc(-c2ccc(Cl)cc2)sc1CCNC(=O)C(=O)Nc1ccc2c(c1)OCO2 | inactive: -5.65% | –
31 | COc1ccc(CNC(=O)C(=O)NCC(c2ccco2)S(=O)(=O)c2ccc(Cl)cc2)cc1 (stereo not given) | inactive: -15.4% | –
32 | Cn1c(=O)c2c(nc(SCC(=O)Nc3ccccc3F)n2Cc2ccccc2F)n(C)c1=O | inactive: -13.8% | –
33 | CCOC(=O)c1cccc(NC(=O)Cn2ncc3c(=O)oc4ccccc4c32)c1 | inactive: 10.5% | –
34 | Cc1ccc(C(=O)c2oc3ccccc3c2NC(=O)COc2ccc(Cl)c(C)c2)cc1 | inactive: 8.17% | –
35 | COc1cc(C2CC(=O)Nc3cc4c(cc32)OCO4)cc(OC)c1O (stereo not given) | inactive: 1.73% | –
36 | Cc1c(C)n(Cc2ccc(Cl)cc2)c2ccc(C(=O)N3CCN(c4ccccc4F)CC3)cc12 | inactive: -2.08% | –
37 | COc1ccc(OC)c(CCNC(=O)c2nc(-c3ccc(Cl)cc3)n3c2CCCCC3)c1 | inactive: -4.45% | –
38 | CC(C)COc1ccc(C(=O)N2CCCCC2CCN2CCOCC2)cc1 (stereo not given) | inactive: -9.48% | –
39 | CCc1cccc(CC)c1NC(=O)CN(C)S(=O)(=O)c1ccc2c(c1)n(C)c(=O)c(=O)n2C | inactive: 0.0961% | –
40 | CSc1nn(Cc2ccc(F)cc2)c(N(C(C)=O)C(C)=O)c1S(=O)(=O)c1ccccc1 | inactive: 1.15% | –
41 | Cc1ccc(C(=O)CSc2nc(C)cc(C)c2C(=O)Nc2cccc(C)c2)cc1 | inactive: -5.09% | –
42 | COc1cccc(CNC(=O)C2CCCN(c3nnc(-n4c(C)ccc4C)s3)C2)c1OC (stereo not given) | inactive: 1.43% | –
43 | O=C(Nc1ccc(OC(F)(F)F)cc1)c1cc(-c2ccc(Cl)cc2)on1 | inactive: 2.83% | –
44 | Cc1nc2c3ccccc3nc(NNC(=O)CCC(=O)N3CCN(c4ccc(F)cc4)CC3)n2n1 | inactive: 1.81% | –
45 | CC(=O)N1CCCc2ccc(NC(=O)c3ccc(OC(C)C)cc3)cc21 | inactive: 5.25% | –
46 | Cc1ccc2nc(COc3ccccc3NC(=O)Nc3ccc(F)c(Cl)c3)cc(=O)n2c1 | inactive: 7.53% | –
47 | Cc1cccc(NC(=O)CSc2cn(CC(=O)N3CCOCC3)c3ccccc23)c1C | inactive: -8.3% | –
48 | CCSc1nc(-c2ccc(OC)cc2)nc2c1Cc1c(CO)cnc(C)c1O2 | inactive: -5.86% | –

Row | Compound | activity change, negative = inhibition | Potency
49 | Cc1ccc(-n2c3nc(=O)n(C)c(=O)c-3cc3ccccc32)c(C)c1 | inactive: 2.66% | –
50 | CCC(=O)N1CCc2cc(Br)cc(S(=O)(=O)N3CCCC(C(=O)NCc4ccc(C)cc4)C3)c21 (stereo not given) | inactive: 3.09% | –
51 | COc1ccc(S(=O)(=O)c2c(Nc3cccc(Cl)c3)sc(C(=O)c3ccccc3)c2N)cc1 | inactive: 0.237% | –
52 | COc1cccc2cc(-c3nc4sc5c(c4c(=O)[nH]3)CCC(C(C)(C)C)C5)c(=O)oc12 (stereo not given) | inactive: -2.58% | –
53 | COc1ccc(/C=C/c2nc(C#N)c(N3CCCCC3)o2)cc1OC | inactive: -5.02% | –
54 | Cc1ccc2c(=O)cc(C(=O)Nc3c(C)cccc3C)oc2c1 | inactive: 1.41% | –
55 | CCc1ccc(NC(=O)Cn2ncn3c(cc4ccccc43)c2=O)cc1 | inactive: -9.38% | –
56 | CCCCN(Cc1cc2cc(C)ccc2[nH]c1=O)C(=O)c1cccc(Cl)c1 | inactive: 0.862% | –
57 | Cc1cc2c(cc1S(=O)(=O)NCc1ccc(F)cc1)OCCN2C | inactive: 0% | –
58 | COc1ccccc1CNC(=O)C(C)n1c(=O)cc(-c2ccccc2)c2c(C)nn(C)c21 (stereo not given) | inactive: -11.3% | –
59 | CC(=O)Nc1ccc2nc3c(=O)n(C)c(=O)n(C)c3nc2c1C | inactive: -1.84% | –
60 | CCOC(=O)Cn1c(=O)oc2cc(S(=O)(=O)N3CCN(c4cccc(C)c4)C(C)C3)ccc21 (stereo not given) | inactive: -1.93% | –
61 | Cc1nc2cccnc2n1-c1cccc(C(=O)NCCN(C)C)c1 | inactive: -0.376% | –
62 | CC(C)c1nn2c(=O)cc(COC(=O)c3cccs3)nc2s1 | inactive: -14.7% | –
63 | N#Cc1nc(-c2ccc(COc3ccccc3)o2)oc1N1CCN(c2ccccc2)CC1 | inactive: -5.67% | –
64 | CCc1ccc(CNC(=O)c2cnc3sc(N4CCOCC4)nn3c2=O)cc1 | inactive: -9.35% | –
65 | COc1ccc(Cl)cc1NC(=O)N1CCN(Cc2cc(=O)n3nc(-c4ccccc4)sc3n2)CC1 | inactive: 14.8% | –
66 | CCCS(=O)(=O)Nc1cccc(-c2cn3ccc(C)cc3n2)c1 | inactive: -0.0726% | –
67 | CCOc1ccc2c(c1)c(=O)c(S(=O)(=O)c1ccc(F)cc1)cn2CC(=O)Nc1ccccc1C | inactive: -10.7% | –
68 | NC1=NC(c2cccc(Cl)c2)n2c(nc3ccccc32)N1 (stereo not given) | inactive: -6.92% | –
69 | CCOC(=O)c1cnn(-c2ccc(C(=O)Nc3ccc(C(C)=O)cc3)cc2)c1N | inactive: -8.27% | –
70 | COc1cc2cc(CNc3ccccc3)c(=O)n(CC(=O)Nc3ccc(C)c(Cl)c3)c2cc1OC | inactive: -0.0537% | –
71 | CCOC(=O)c1c(S(=O)(=O)N2CCCC(C(=O)NCc3cccc(C)c3)C2)c(C)n(C)c1C (stereo not given) | inactive: 1.93% | –
72 | COCCN(Cc1ccco1)C(=O)c1cc2c(=O)[nH]c3ccc(C)cc3c2s1 | inactive: -1.31% | –

Row | Compound | activity change, negative = inhibition | Potency
73 | COc1ccc(C)cc1NS(=O)(=O)c1c(C(=O)N2CCC(C)CC2)c(C)n(C)c1C | inactive: 6.08% | –
74 | COC(=O)c1ccc(NC(=O)CCCC(=O)OCC(=O)c2ccc(Cl)cc2)cc1 | inactive: -10.3% | –
75 | Cc1ccc(-c2noc(-c3ccc(N4CCN(C)CC4)c([N+](=O)[O-])c3)n2)cc1 | inactive: 2.92% | –
76 | O=C(COc1ccccc1)NCC(c1ccc(Cl)cc1)N1CCOCC1 (stereo not given) | inactive: 1.32% | –
77 | Cc1ccc(NC(=O)c2oc3ccc4c(c3c2C)C(=O)CC(C)(C)O4)c(C)c1 | inactive: 5.55% | –
78 | COc1ccc(CCNC(=O)c2cccc(Nc3nc4ccccc4nc3-n3nc(C)cc3C)c2)cc1OC | inactive: 2.6% | –
79 | COc1ccc(C2C=C(c3ccc(Cl)cc3)Nc3nc(-c4ccc(Cl)cc4)nn32)cc1 (stereo not given) | inactive: -9.58% | –
80 | CCOc1c(Br)cc(C2CC(=O)Nc3cc4c(cc32)OCO4)cc1OC (stereo not given) | – | active: 14.7 µM
81 | Cc1ccccc1OCC(=O)NCC(c1ccc(Cl)cc1)N1CCCCC1 (stereo not given) | inactive: -10.2% | –
82 | Cn1ncc2c(N3CCN(c4ccccc4F)CC3)ncnc21 | inactive: 4.06% | –
83 | CCOc1ccc(/C=C/c2nc(C#N)c(NC(C)c3ccccc3)o2)cc1 (stereo not given) | inactive: -2.76% | –
84 | COc1ccc(C)cc1NC(=O)Nc1cccc(OCc2cc(=O)n3ccc(C)cc3n2)c1 | inactive: 4.53% | –
85 | CCOC(=O)c1ccc(-n2c(CCC(=O)O)ccc2-c2ccccc2)cc1 | inactive: -14.3% | –
86 | CC(=O)N1CCc2cc(Br)cc(S(=O)(=O)N3CCC(C(=O)Nc4ccc(C(C)C)cc4)CC3)c21 | inactive: -5.84% | –
87 | COc1cccc(C(=O)N2c3ncnn3C3(CCCCC3)[C@@H]3CCCC[C@@H]32)c1 | inactive: -23.5% | –
88 | COc1ccc(N2CCN(S(=O)(=O)c3ccc(-c4ccno4)cc3OC)CC2)cc1 | inactive: -5.35% | –
89 | CCCCc1ccc(NC(=O)c2ccc3c(c2)CCN3S(=O)(=O)CC)cc1 | inactive: -4.62% | –
90 | CN(Cc1ccccc1)S(=O)(=O)c1ccc(NC(=O)c2cc(=O)c3ccccc3o2)cc1 | inactive: 4.02% | –
91 | CCc1cccc(C)c1NC(=O)CN1C(=O)C2(SCC(=O)N2c2cccc(F)c2)c2ccccc21 (stereo not given) | inactive: 4.83% | –
92 | Cc1cccc(N2CCN(S(=O)(=O)c3cc(C(=O)Nc4ccc(Oc5ccccc5)cc4)ccc3F)CC2)c1C | inactive: 12.7% | –
93 | O=c1oc2ccccc2c(N2CCN(c3ccc(F)cc3)CC2)c1CN1CCCC1 | inactive: -29.8% | –
94 | O=C(Cn1ncc2c([nH]c3ccccc32)c1=O)NCCCN1CCN(c2ccccc2)CC1 | inactive: -8% | –
95 | COc1ccc(C(=O)COC(=O)c2cc(-c3cccs3)nc3ccccc23)cc1 | inactive: -19.5% | –
